From article PMC9975078 (Molecular cell, 2023)

Molecular target: His-RPA1 (recombinant RPA1^WT) (human, UniProt P27694)
Assay: pull-down

UniProt P27694, sequence (P27694 whole entry): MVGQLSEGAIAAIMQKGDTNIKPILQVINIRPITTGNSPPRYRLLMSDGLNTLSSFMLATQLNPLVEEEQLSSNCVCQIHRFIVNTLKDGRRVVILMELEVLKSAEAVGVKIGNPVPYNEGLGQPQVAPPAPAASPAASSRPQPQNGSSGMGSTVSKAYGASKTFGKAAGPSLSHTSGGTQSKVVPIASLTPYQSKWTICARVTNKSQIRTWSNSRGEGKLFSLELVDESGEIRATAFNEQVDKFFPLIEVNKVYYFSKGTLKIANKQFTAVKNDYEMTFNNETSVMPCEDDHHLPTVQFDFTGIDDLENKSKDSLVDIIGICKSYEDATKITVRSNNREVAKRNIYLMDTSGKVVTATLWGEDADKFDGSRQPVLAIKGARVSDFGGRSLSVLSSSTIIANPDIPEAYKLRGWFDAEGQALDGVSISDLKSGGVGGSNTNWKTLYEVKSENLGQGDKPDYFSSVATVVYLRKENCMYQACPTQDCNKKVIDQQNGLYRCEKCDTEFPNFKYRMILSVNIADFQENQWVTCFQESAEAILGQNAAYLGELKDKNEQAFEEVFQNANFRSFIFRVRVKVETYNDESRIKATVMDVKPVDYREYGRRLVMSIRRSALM

B1: SUMO1 protein (natural protein)
chain: not shown
binding result: binds
